We go through 42 sequences from publication PMC7819943, “Rice protein-binding microarrays: a tool to detect cis-acting elements near promoter regions in rice”.

Some of the results follow.

The target of this assay is T1, OsWOX13 (Oryza sativa, UniProt Q5QMM3 1-267).
T1 sequence: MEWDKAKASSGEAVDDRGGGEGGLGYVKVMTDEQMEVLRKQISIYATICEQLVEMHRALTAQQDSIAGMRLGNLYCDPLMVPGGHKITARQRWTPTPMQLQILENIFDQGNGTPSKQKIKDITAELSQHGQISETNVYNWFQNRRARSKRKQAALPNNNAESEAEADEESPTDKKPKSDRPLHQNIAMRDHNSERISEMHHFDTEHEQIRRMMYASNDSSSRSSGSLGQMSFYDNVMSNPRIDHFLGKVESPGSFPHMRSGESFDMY
Briefly: protein-binding microarray (RPBM); PBS, 2% BSA, 51.3 ng/ul salmon testes DNA, 50 uM zinc acetate, 200 nM TF, 25 C, 1 h; high values mean tight binding. The settings on record: protein: recombinant; tags: N-terminal polyhistidine and DsRed monomer fusion (pET32a); label: CyDye5-dUTP incorporated in the synthesized complementary strand; 3' TTTTT single-stranded linker to array surface; dsDNA, one strand shown. In outline: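 In PBS with 2% BSA, salmon testes DNA and 50 µM zinc acetate, 200 nM protein was incubated on a custom Agilent array at 25 °C for 1 h and then washed off. The array had been made double-stranded by primer extension with Cy5-dUTP and blocked with 2% BSA. The proteins were transcription factors fused N-terminally to polyhistidine and DsRed, expressed in E. coli BL21-CodonPlus and purified on Ni–NTA. The binding signal is per-feature fluorescence intensity (arbitrary units) from an Axon 4000B scanner.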
For the sequence “TCAGACTTAATCAAACTGTCAAGAACATACATAAGCACATCGGAGTCACCTAGTGCAG”, the binding signal is 4090 fluorescence intensity (a.u.).

For the sequence “TAAAATTACATATGTAATTATAGTGTAAGTACGATGTAATCGGAGTCACCTAGTGCAG”, the binding signal is 25500 fluorescence intensity (a.u.). As for “ATTAATAGAATCAATACAAGGCCATTTATCATGATAGACACGGAGTCACCTAGTGCAG”, the figure is 7760 fluorescence intensity (a.u.).

For the sequence “TTAATTAAATTGGACCACCATAACCTAAAATCCTAGCTACCGGAGTCACCTAGTGCAG”, the binding signal is 44800 fluorescence intensity (a.u.). As for “AATAAAATTAGAAACCATAAATTAGGGCCCTCTTCGACATCGGAGTCACCTAGTGCAG”, the figure is 12900 fluorescence intensity (a.u.); as for “GAAAGTGATTCGGATAATTTCCGACCGACCGGACCATTTTCGGAGTCACCTAGTGCAG”, 3370 fluorescence intensity (a.u.); as for “AACTAATGAATTGCTTTGAAAATGACCTGCATATAGGAAACGGAGTCACCTAGTGCAG”, 4500 fluorescence intensity (a.u.). As for “AATAATTGTATTGGGAGTAAATAAAATTGGATATAGTTGCCGGAGTCACCTAGTGCAG”, the figure is 19900 fluorescence intensity (a.u.); as for “TCGCTGATGAAAATGATGAGCATGGTGAGGGGAAGAAGGGCGGAGTCACCTAGTGCAG”, 8170 fluorescence intensity (a.u.). As for “TCCCGTCTCGCTTGATTGGTTTCTGACAAGAACGAGATTACGGAGTCACCTAGTGCAG”, the figure is 16500 fluorescence intensity (a.u.); as for “ACACCACATCAATCAAGCTAAACAAACACAACACATATCCCGGAGTCACCTAGTGCAG”, 23800 fluorescence intensity (a.u.); as for “AAGGTAATTAACTAACCGGGTTAATTTTATTCGTTAGATTCGGAGTCACCTAGTGCAG”, 28400 fluorescence intensity (a.u.).

As for “AATTGATTATTCCTAACAACATTCCGCGGATTAATTTTCTCGGAGTCACCTAGTGCAG”, the binding signal was 15500 fluorescence intensity (a.u.).

“GAATTATAATTATTTTGGAACGGAGATAGCAGTTAATTTGCGGAGTCACCTAGTGCAG”: the binding signal is 6240 fluorescence intensity (a.u.).

As to “TGTAACAGATAAACTTCTTGGGCCAGGCCTTCGAGCACGCCGGAGTCACCTAGTGCAG”, the binding signal is 7360 fluorescence intensity (a.u.).

On to “AGAATTAGTATTAATTATATTTAGTGGGAATAAATTTTGTCGGAGTCACCTAGTGCAG”, for which the binding signal is 15900 fluorescence intensity (a.u.). For the sequence “GTTTATTGATTACGATTGCAAGCTCTATACAAGAAAGCAGCGGAGTCACCTAGTGCAG”, the binding signal was 42200 fluorescence intensity (a.u.). With “AATAATTACTTAAATTTTGAATAAGACGAACGGTCAAACACGGAGTCACCTAGTGCAG”, the binding signal is 28300 fluorescence intensity (a.u.).

With “GGTATGATTAATCACACACACAAACGAGAAGTCCAATTCGCGGAGTCACCTAGTGCAG”, the binding signal is 34000 fluorescence intensity (a.u.). With “GCATTGTTAACTTGATTACTCTGTCCGTTTCATATTGTACCGGAGTCACCTAGTGCAG” the figure was 10600 fluorescence intensity (a.u.); with “TTTGTTTTGCCCAGTTATCATGATTGTCAGTATCCGTTTCCGGAGTCACCTAGTGCAG”, 4880 fluorescence intensity (a.u.).

In the case of “CCCAAACCAGATATTAGACATAATTTTCATAATCTCTACACGGAGTCACCTAGTGCAG”, the binding signal was 4010 fluorescence intensity (a.u.).

Take “CCACTAACAGTCTAACAACATGATAAGGCCTCCGCAACCACGGAGTCACCTAGTGCAG”: the binding signal was 3920 fluorescence intensity (a.u.). As for “TAAATAGATGATAAGTAGAATTACTTATCATTGGTCTGTGCGGAGTCACCTAGTGCAG”, the binding signal is 9740 fluorescence intensity (a.u.). For the sequence “TATAGTTACAATATAATTACAATACAATTATACTAGTGTTCGGAGTCACCTAGTGCAG”, the binding signal is 4550 fluorescence intensity (a.u.). As for “GAAGAAGATTGGGTTGCTAACACGTGGGTCTCACGCTGACCGGAGTCACCTAGTGCAG”, the figure is 6420 fluorescence intensity (a.u.); as for “CTTGAAATTTAAATTTGACTTGTAGCTTGAAGTAAATGTCCGGAGTCACCTAGTGCAG”, 30000 fluorescence intensity (a.u.); as for “AGGTGACTGTGGTGACTTTATCGATCTTAATATACATCGGCGGAGTCACCTAGTGCAG”, 4620 fluorescence intensity (a.u.). As for “TGTTTTAAAATTAATCATTTGAGCTATGAATCTAGTCATCCGGAGTCACCTAGTGCAG”, the figure is 3540 fluorescence intensity (a.u.); as for “GGCTTTAATTGGTTGATCTAGTAGCTTTTCCTGAACAAATCGGAGTCACCTAGTGCAG”, 27900 fluorescence intensity (a.u.); as for “TGCACCTGTTATTTTCCCGTTCTCTTGTTCTTTCCATTTGCGGAGTCACCTAGTGCAG”, 3490 fluorescence intensity (a.u.). As for “CTGATAGATATAGAATAGCGATTGTTTATATTTTAAAATGCGGAGTCACCTAGTGCAG”, the binding signal is 18000 fluorescence intensity (a.u.). As for “GAAAGATTTGATATACAGCACATACCAATAGTTCGGTATACGGAGTCACCTAGTGCAG”, the binding signal was 5020 fluorescence intensity (a.u.). With “TGTGAATTGATCTTGATAACATCTGCTACACTGTAAATAACGGAGTCACCTAGTGCAG”, the binding signal was 6570 fluorescence intensity (a.u.). Regarding “ATTATACAGATTACGTGTAAATTGCGAGACGAATCTTTCACGGAGTCACCTAGTGCAG”, the binding signal is 7100 fluorescence intensity (a.u.). With “CTGATTTTGATAGTTAAAGGGTGAACAATAGATCCTTTCTCGGAGTCACCTAGTGCAG” the figure was 5690 fluorescence intensity (a.u.). With “CAGGTGCTTTGGTTTGATTGCTACGTCGTCTTAATCTACACGGAGTCACCTAGTGCAG” the figure was 4150 fluorescence intensity (a.u.). With “TTGACAAAACTGAGATGGTTGTATGTGTTTTCTGCTAGGTCGGAGTCACCTAGTGCAG” the figure was 3410 fluorescence intensity (a.u.); with “CAGGTGCTCTAACTACTATGTAATTGAACCACTGACATGTCGGAGTCACCTAGTGCAG”, 5510 fluorescence intensity (a.u.). As for “CATGACCAAACTATCACAAAACTACAAATTTAACTAGGTTCGGAGTCACCTAGTGCAG”, the binding signal was 3370 fluorescence intensity (a.u.). As to “AAAATTAGTTAACGGTAATTATGCATACAACTTGCATTGTCGGAGTCACCTAGTGCAG”, the binding signal was 31700 fluorescence intensity (a.u.). With “TAGGTTGATAATTATTTGAAGGCACCAACAAATGAGTTAGCGGAGTCACCTAGTGCAG” the figure was 6350 fluorescence intensity (a.u.).
